Measurements: PubChem BioAssay AID1745845 (National Center for Advancing Translational Sciences (NCATS), 2022)
Where “and” joins values, the source holds several entries; their conditions need not be identical. Equal values may be shown once. About 2,600 (0.72%) of roughly 360,000 compounds were called active. The shares of active, inactive and inconclusive entries below differ from those in the screen. Calls come from the whole dose curve; as a rule, active = well fitted inhibition curve with a large enough effect; inconclusive = small, poorly fitted or top-dose-only effect; inactive = no such curve, though single readings can be large or run the other way. A potency beside an inconclusive call is a rough fit, not a confirmed value.

Assay: Primary qHTS for Inhibitors of ATXN expression; note: nearly all actives have a fitted effect of over 55% in size
Details: HEK-293 ATXN2-luciferase reporter, luminescence, 24 h; activity change, negative = inhibition: at 57 µM (top of the series)
Method in brief: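 ATXN2-luciferase reporter cells (luciferase flanked by upstream and downstream ATXN2 gene portions) were treated 24 h at 37 °C with compounds at up to 57 uM. SteadyGlo luminescence gave expression; GF-AFC fluorescence gave viability.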
% is set by controls: 0 for no effect and ±100 for the full control effect; potency is the fitted concentration of half-maximal effect; tags give direction and shape of the fitted curve.

SMILES | Potency | activity change, negative = inhibition
O=[N+]([O-])c1cc2no[n+]([O-])c2cc1N1CCCCC1 | active: 9.47 µM | –
CC(C(=O)Nc1ccc(Cl)cc1)c1ncc(C(F)(F)F)cc1Cl (stereo unspecified) | inconclusive: 31.6 µM [inhibitor, partial curve, poor fit] | –
O=C(CN1C(=O)CCC1=O)Nc1cccc(NC(=O)CN2C(=O)CCC2=O)c1 | inconclusive: 2.99 µM [inhibitor, partial curve, poor fit] | –
C=CCN(c1ccccc1)S(=O)(=O)c1cccc(C(=O)NCC(c2ccccc2OC)N2CCCC2)c1 (stereo unspecified) | inconclusive: 3.98 µM [inhibitor, partial curve, poor fit] | –
Cc1ccc(NS(=O)(=O)c2cc3c4c(cccc4c2)C(=O)NC3=O)cc1C | inconclusive: 17.8 µM [inhibitor, partial curve] | –
COc1ccc(S(=O)(=O)c2c(O)c(C)cc(NS(=O)(=O)c3ccc(Cl)cc3)c2C(C)C)cc1 | inconclusive: 35.5 µM [inhibitor, single point] | –
Nc1nn(-c2ccccc2)c(N)c1N=Nc1ccccc1 | inactive | –
Cc1ccc(S(=O)(=O)N2CCOCC2)cc1NC(=O)CN1CCC(Cc2ccccc2)CC1 | inconclusive: 25.1 µM [inhibitor, partial curve] | –
CCOC(=O)N1CCN(c2nnc(-c3ccc(C)cc3)c3ccccc23)CC1 | inconclusive: 28.2 µM [inhibitor, single point] | –
Fc1ccc(CCn2c(Cn3c(-c4cnccn4)nc4ccccc43)nc3ccccc32)cc1 | inconclusive: 39.8 µM [inhibitor, single point] | –
Cc1nn(-c2nc3ccccc3[nH]2)c(=O)c2ccccc12 | active: 0.398 µM | –
Cc1ccccc1OCC(O)Cn1c(=N)n(Cc2ccccc2)c2ccccc21 (stereo unspecified) | inconclusive: 39.8 µM [inhibitor, single point] | –
CC1Oc2ccccc2C(=O)N(CC(=O)c2ccc3c(c2)OCCO3)C1=O (stereo unspecified) | inconclusive: 3.16 µM [inhibitor, partial curve, poor fit] | –
O=C(O)C(Cc1ccccc1)NC(=O)C(Cc1ccccc1)NC(=O)C12CC3CC(CC(C3)C1)C2 (stereo unspecified) | inactive | –
CC(=O)Nc1cccc(NC(=O)CSc2ncc(-c3ccc(Cl)cc3)n2Cc2ccco2)c1 | inconclusive: 35.5 µM [inhibitor, single point] | –
C(=C\c1ccccc1)/CN1CCN(C(c2cc3ccccc3o2)c2nnnn2-c2ccc3c(c2)OCCO3)CC1 (stereo unspecified) | inactive | –
Cc1cc(N2CCN(c3ccccc3)CC2)nc(-n2nc(C)cc2C)n1 | inconclusive: 28.2 µM [inhibitor, single point] | –
CC1C/C(=C/c2ccccn2)C(=O)/C(=C/c2ccccn2)C1 (stereo unspecified) | inconclusive: 1.68 µM [inhibitor, full curve, poor fit] | –
CCN(CC)c1cc(C)c2cc(NC(=O)/C=C/c3ccccc3Cl)ccc2n1 | active: 28.2 µM | –
Cc1[nH]c2ccccc2c1SCC(=O)NNC(=O)Nc1ccc(OC(F)(F)F)cc1 | inactive | –
COc1cc(/C=C/C(=O)c2ccc(C)c([N+](=O)[O-])c2)cc(OC)c1O | inconclusive: 25.1 µM [inhibitor, single point] | –
Cc1cccc(/C=N/n2c(C)nnc2C)c1 | inconclusive: 39.8 µM [inhibitor, single point] | –

SMILES | Potency | activity change, negative = inhibition
CCC(=O)N/C(N)=N/c1nc2ccccc2o1 | inactive | –
COc1ccc(NC(=O)c2oc3ccc(S(=O)(=O)N4CCCCC4)cc3c2C)cc1Cl | inconclusive: 39.8 µM [inhibitor, single point] | –
Cc1ccc(NC(=O)c2sc(N)nc2-c2ccc([N+](=O)[O-])cc2)c(C)c1 | inconclusive: 8.91 µM [inhibitor, partial curve] | –
COc1ccc(C(=O)N/N=C(\N)c2cc3ccccc3oc2=O)cc1 | inactive | –
CN1CCN(c2nc(-c3ccccc3)cc(C(F)(F)F)n2)CC1 | inconclusive: 31.6 µM [inhibitor, partial curve, poor fit] | –
COc1ccc(CC(N)c2csc(Nc3cc(NCCCO)ncn3)n2)cc1 (stereo unspecified) | inconclusive: 15.8 µM [inhibitor, partial curve, poor fit] | –
Cc1ccc(S(=O)(=O)N2CCCCC2)cc1NC(=O)CSc1nncn1-c1ccccc1 | – | inactive: -17.8% [at 11.3 µM]
O=C(CN1CCN(c2ccc(Cl)cc2)CC1)Nc1ccc(Cl)c(C(F)(F)F)c1 | inconclusive: 25.1 µM [inhibitor, single point] | –
COc1ccccc1/C=C/C=C1\Oc2c(ccc(O)c2CN2CCN(CCO)CC2)C1=O | inactive | –
CCc1nc2c(OCCn3cccc3)cccn2c1N(C)C(=O)C1CC1 | inactive | –
Cc1c(Cl)cccc1NC(=O)C1NC(=O)CC1c1ccccc1 (stereo unspecified) | inconclusive: 0.631 µM [inhibitor, full curve, poor fit] | –
Cc1ccc(NC(=O)COc2ccc(/C=C3/SC(=Nc4ccccc4)N(Cc4cccnc4)C3=O)cc2)cc1 | active: 14.1 µM | –
Oc1cccc(-c2c3nc(c(-c4cccc(O)c4)c4ccc([nH]4)c(-c4cccc(O)c4)c4nc(c(-c5cccc(O)c5)c5ccc2[nH]5)CC4)C=C3)c1 | inactive | –
Cc1ccc(C)c(N2CCN(C(=O)c3ccc(CS(=O)Cc4ccc(Cl)cc4)o3)CC2)c1 (stereo unspecified) | inconclusive: 28.2 µM [inhibitor, single point] | –
COc1ccc(C(=O)CC(Nc2ccc([N+](=O)[O-])cc2)c2ccc(OC)cc2)cc1 (stereo unspecified) | inactive | –
Cc1ccc(NC(=O)C2(C)CCN2C(=O)Cc2ccc(-c3ccccc3)cc2)cc1 (stereo unspecified) | inactive | –
Cc1ccc(N2CC(C(=O)Nc3nccs3)CC2=O)cc1Cl (stereo unspecified) | active: 6.31 µM | –
Cc1cc(N)ccc1NC(=O)CN1CCCC1 | inactive | –
CCN(CC)S(=O)(=O)c1cccc(NC(=O)COC(=O)c2cccs2)c1 | inactive | –
CC(C)C[C@H]1CNC(=O)C(=O)N1CC1CCN(CC2CCC(C(C)(C)C)CC2)CC1 (stereo partly specified) | inactive | –
COc1ccc(C(=O)C2CCCN(C3Cc4ccccc4C3)C2)c(OC)c1 (stereo unspecified) | – | inconclusive: -42.3% [inhibitor]
COc1ccccc1NC(=O)c1ccccc1NS(C)(=O)=O | inactive | –

SMILES | Potency | activity change, negative = inhibition
Nc1nc(Cl)nc2c1ncn2[C@H]1C[C@H](O)[C@@H](CO)O1 | inconclusive: 4.32 µM [inhibitor, partial curve] and inconclusive: 4.47 µM [inhibitor, partial curve, poor fit] | –
S=C(Nc1ccccc1)Nc1cccc(Cl)c1Cl | inactive | –
O=C(Nc1nnc(-c2ccc3c(c2)CCCC3)o1)c1ccc(Cl)cc1Cl | inconclusive: 39.8 µM [inhibitor, single point] | –
COc1cccc2c1[C@@H]1CN(CCCCn3c(=O)[nH]c4c(sc5ncc(-c6ccccc6)nc54)c3=O)C[C@@H]1CO2 | inconclusive: 35.5 µM [inhibitor, single point] | –
COc1ccc(Cn2c(N)c(C#N)c3nc4ccccc4nc32)cc1 | inactive | –
CCCCCCCCN1C(=O)[C@H](CC(=O)NCc2ccc(OC)c(OC)c2)C[C@@]2(C(=O)OC)CCCCC=C12 | inconclusive: 39.8 µM [inhibitor, single point] | –
Cc1c(CCCl)c(Cl)n2c(nc3ccccc32)c1C#N | inconclusive: 7.08 µM [inhibitor, full curve, poor fit] | –
O=c1c2ccccc2nc(/C=C/c2ccc(O)cc2)n1CCc1ccccc1 | inconclusive: 8.44 µM [inhibitor, single point] | –
COC(=O)c1cc(C(=O)OC)n(Cc2ccc(F)cc2)c1C | inactive | –
O=C(Nc1nonc1NC(=O)c1cccs1)c1cccs1 | inconclusive: 11.9 µM [inhibitor, single point] | –
Cc1[nH]n(-c2ccc([N+](=O)[O-])cc2)c(=O)c1C=NCCc1c(C)[nH]c2ccccc12 | inconclusive: 17.8 µM [inhibitor, partial curve, poor fit] | –
Cc1[nH]c2ccccc2c1C(O)CN1CCN(c2cccc(C(F)(F)F)c2)CC1 (stereo unspecified) | inconclusive: 35.5 µM [inhibitor, single point] | –
O=C(O)C1C2C=CC(C2)C1C(=O)N1CCc2ccccc21 (stereo unspecified) | inconclusive: 15.8 µM [inhibitor, partial curve, poor fit] | –
COC(=O)c1ccc(NC(=O)c2cc(-c3ccncc3)nc3ccccc23)cc1 | inconclusive: 22.4 µM [inhibitor, partial curve, poor fit] | –
COc1ccc(C[C@H]2CN3C(=NC[C@@H]3C(C)C)N2CCNC(=O)c2ccc(C)c(Br)c2)cc1 | inconclusive: 20 µM [inhibitor, partial curve] | –
CCOc1ccc(NC(=S)NCCN2CCN(Cc3ccccc3)CC2)cc1 | inactive | –
CC(C)Oc1ccc(/C(O)=C2/C(=O)C(=O)N(CCN3CCOCC3)C2c2ccccc2)cc1 (stereo unspecified) | inconclusive: 28.2 µM [inhibitor, partial curve, poor fit] | –
Cc1cc2cc(C)c3nnc(SCC(=O)Nc4ccc(S(=O)(=O)N5CCCCC5)cc4)n3c2cc1C | inconclusive: 31.6 µM [inhibitor, single point] | –
CC(NC(=S)Nc1cccc(F)c1)C(c1cccs1)N1CCOCC1 (stereo unspecified) | inactive | –
COc1cccc(-c2cc(NC=O)c3ncc(-c4ccc(OC)c(OC)c4)n3c2)c1 | inconclusive: 17.8 µM [inhibitor, partial curve, poor fit] | –
Cc1ccc(S(=O)(=O)N(CC(=O)N2CCc3ccccc3C2)c2ccc(C)c(C)c2)cc1 | inactive | –
Cc1nc([N+](=O)[O-])c(Br)n1CC(=O)c1cccc([N+](=O)[O-])c1 | inconclusive: 39.8 µM [inhibitor, single point] | –
